Measurements taken from PubChem BioAssay AID504332 (National Center for Advancing Translational Sciences (NCATS), 2011).
Out of some 350,000 compounds screened, about 31,000 (8.9%) were called active. The inconclusive results got no clear call from the source; some entries with a clear call stand among them for comparison. Calls come from the whole dose curve; as a rule, active = well fitted inhibition curve with a large enough effect; inconclusive = small, poorly fitted or top-dose-only effect; inactive = no such curve, though single readings can be large or run the other way. Where the call is inconclusive, the potency comes from a doubtful curve fit.

These compounds were tested against Histone-lysine N-methyltransferase EHMT2 (Homo sapiens) (UniProt Q96KQ7) (assay: qHTS Assay for Inhibitors of Histone Lysine Methyltransferase G9a). Details: G9a H3K9 monomethylation, AlphaScreen, 2 h; activity, negative = inhibition: at 59 µM (top of the series) unless noted.
Procedure, shortened: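 Signal arises when biotinylated H3K9 peptide, once monomethylated, bridges streptavidin donor and antibody-captured acceptor beads. Enzyme at 20 nM was preincubated 15 min with test compounds; peptide 500 nM and SAM 20 uM then reacted for 2 h.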
% is set by controls: 0 for no effect and ±100 for the full control effect; potency is the fitted concentration of half-maximal effect; tags give direction and shape of the fitted curve.
Note: nearly all actives have a fitted effect of over 75% in size.

Sequence of UniProt Q96KQ7 (Q96KQ7 whole entry, looked up): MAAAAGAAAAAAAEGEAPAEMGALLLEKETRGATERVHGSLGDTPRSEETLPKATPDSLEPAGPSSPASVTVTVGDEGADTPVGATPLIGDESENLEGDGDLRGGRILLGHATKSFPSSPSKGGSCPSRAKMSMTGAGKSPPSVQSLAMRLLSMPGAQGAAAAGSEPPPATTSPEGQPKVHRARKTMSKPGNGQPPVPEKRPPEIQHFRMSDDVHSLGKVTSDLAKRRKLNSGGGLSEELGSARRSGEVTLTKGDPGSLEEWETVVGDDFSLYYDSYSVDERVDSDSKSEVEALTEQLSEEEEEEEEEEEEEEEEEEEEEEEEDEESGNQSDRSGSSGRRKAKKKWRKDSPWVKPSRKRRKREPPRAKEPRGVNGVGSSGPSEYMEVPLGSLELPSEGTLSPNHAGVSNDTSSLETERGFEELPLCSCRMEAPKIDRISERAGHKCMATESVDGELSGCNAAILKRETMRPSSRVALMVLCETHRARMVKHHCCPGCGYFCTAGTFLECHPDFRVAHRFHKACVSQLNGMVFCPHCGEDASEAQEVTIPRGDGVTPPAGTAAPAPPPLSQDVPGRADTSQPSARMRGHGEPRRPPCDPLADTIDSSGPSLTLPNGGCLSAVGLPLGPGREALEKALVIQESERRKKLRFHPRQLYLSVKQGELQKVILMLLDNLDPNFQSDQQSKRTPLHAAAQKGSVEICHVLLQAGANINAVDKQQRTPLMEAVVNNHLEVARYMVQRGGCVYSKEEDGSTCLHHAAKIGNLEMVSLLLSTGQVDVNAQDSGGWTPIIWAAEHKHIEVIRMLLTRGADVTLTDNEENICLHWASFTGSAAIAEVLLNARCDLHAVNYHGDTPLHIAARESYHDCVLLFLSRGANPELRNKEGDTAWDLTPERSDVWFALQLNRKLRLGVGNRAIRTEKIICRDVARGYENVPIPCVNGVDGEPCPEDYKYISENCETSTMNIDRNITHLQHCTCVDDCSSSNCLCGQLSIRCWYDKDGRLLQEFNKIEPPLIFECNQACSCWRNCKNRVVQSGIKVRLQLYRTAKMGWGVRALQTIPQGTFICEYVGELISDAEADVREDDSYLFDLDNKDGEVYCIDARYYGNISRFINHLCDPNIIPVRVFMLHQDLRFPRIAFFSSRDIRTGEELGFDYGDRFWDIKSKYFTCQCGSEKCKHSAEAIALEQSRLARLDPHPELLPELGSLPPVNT

| SMILES | Potency | activity, negative = inhibition |
| --- | --- | --- |
| O=c1[nH]c(Nc2ccc(F)cc2)cc2ccccc12 | active: 11.2 µM |  |
| COc1ccc2c(c1)-c1c(ssc1=S)C(C)(C)N2S(=O)(=O)c1ccc(C)cc1 | active: 3.16 µM |  |
| COc1ccc(N2CC(C(=O)NCCN3C(=O)S/C(=C\c4cccnc4)C3=O)CC2=O)c(OC)c1 (stereo unspecified) | inconclusive: 1.58 µM [inhibitor, partial curve, poor fit] |  |
| COC(=O)C1=C(N)c2c(F)cccc2C1(C#N)c1ccccc1 (stereo unspecified) | inconclusive: 89.1 µM [inhibitor, single point] |  |
| COc1ccc(NC(=O)CC2SC(=Nc3ccccc3)NC2=O)c(OC)c1 (stereo unspecified) | inactive |  |
| CCN(CC)CCN1C(=O)C(=O)/C(=C(/O)c2c(C)[nH]c(C(=O)OC)c2C)C1c1cccs1 (stereo unspecified) | inconclusive: 25.1 µM [inhibitor, single point] |  |
| COC(=O)c1c(C(=O)OC)c(-c2ccc(OC)cc2)n2c1CCC2 | inconclusive: 0.158 µM [inhibitor, full curve, poor fit] |  |
| Cc1ccc2[nH]cc(CCNC(=O)CN3C(=O)c4ccccc4C3=O)c2c1 | inconclusive: 14.1 µM [inhibitor, single point] |  |
| N#CCCn1c(SCC(=O)NCCc2ccc(F)cc2)nc2ccccc21 | inconclusive: 70.8 µM [inhibitor, partial curve, poor fit] |  |
| Cc1cc(C)cc(NC(=S)N(Cc2ccc(Br)cc2)Cc2ccc(C(=O)O)cc2)c1 | inconclusive: 39.8 µM [inhibitor, partial curve, poor fit] |  |
| COCCN(C(=O)CSc1nnc(Nc2ccc(C)cc2)s1)c1c(N)n(CC(C)C)c(=O)[nH]c1=O | inactive |  |
| Cc1cc(C)cc(NC(=O)/C=C/c2ccc([N+](=O)[O-])s2)c1 | inactive |  |
| CCC(=O)Nc1cc(NC(=O)CSc2ncc(-c3ccc(F)cc3)n2Cc2ccco2)ccc1C | inconclusive: 28.2 µM [inhibitor, single point] |  |
| O=C(Nc1cccc([N+](=O)[O-])c1)c1ccc2ccccc2c1O | active: 15.8 µM |  |
| Oc1ccc(/C=N/Nc2cc(N3CCCC3)nc(N3CCCC3)n2)cc1O | inconclusive: 20 µM [inhibitor, single point] |  |
| COc1ccc(N=C2NC(=O)/C(=C/c3ccc(O)c(OC)c3)S2)cc1 | inconclusive: 3.55 µM [inhibitor, full curve, poor fit] |  |
| CCOC(=O)CSc1nnc(-c2cccs2)n1-c1ccccc1 | inconclusive: 28.2 µM [inhibitor, single point] |  |
| COCCNC(=O)C(=O)NCC1OCCN1S(=O)(=O)c1ccc(C)cc1 (stereo unspecified) | inactive |  |
| Cc1ccccc1C(=O)N1CCC(C(=O)OCc2nc(N)nc(Nc3ccccc3)n2)CC1 | inconclusive: 7.08 µM [inhibitor, full curve] |  |
| COc1ccc(-c2nc(C(=O)Nc3cccc(C(C)=O)c3)nn2-c2ccc(Cl)cc2)cc1 | inconclusive: 35.5 µM [inhibitor, partial curve, poor fit] |  |
| CC(C)(C)NC(=O)CSc1nc(-c2ccccc2)c(-c2ccccc2)[nH]1 |  | inactive: 16.2% [at 12.7 µM] |
| COc1ccc(NC(=O)c2oc3ccccc3c2NC(=O)c2cc(=O)c3c(C)cc(C)cc3o2)cc1 | inactive |  |
| CN1CCN(CCCN2c3ccccc3Sc3ccccc32)CC1 | active: 28.2 µM |  |
| COCCNC(=O)CCCCCn1c(=S)[nH]c2ccccc2c1=O |  | inactive: 15.6% [at 12.7 µM] |

| SMILES | Potency | activity, negative = inhibition |
| --- | --- | --- |
| Cc1nc(-c2ccccc2)sc1-c1nc(-c2cccnc2)ncc1S(=O)(=O)c1ccccc1 | inconclusive: 70.8 µM [inhibitor, single point] |  |
| COc1ccc(OC)c(Nc2nc3ccccc3n3c(C)nnc23)c1 | inactive |  |
| CCSc1ccccc1C(=O)NCc1ccc2c(c1)OCO2 | inactive |  |
| CCOc1ccc(N2C(=O)S/C(=C\c3cccn3C)C2=O)cc1 | inconclusive: 89.1 µM [inhibitor, single point] |  |
| COc1ccc(N2CCN(C(=O)CSc3nnc(Cn4nnc5ccccc54)n3C)CC2)cc1 |  | inconclusive: -62.9% [inhibitor] |
| O=C(Nc1ccccc1[N+](=O)[O-])C1(c2ccccc2)CCOCC1 | inconclusive: 44.7 µM [inhibitor, partial curve] |  |
| O=Cc1ccc2noc(-c3ccc(Cl)cc3)c2c1 | active: 22.4 µM |  |
| NC(=O)[C@@H]1CSSCCC(=O)N[C@@H](CCCCN=C(N)N)C(=O)NCC(=O)N[C@@H](CC(=O)O)C(=O)N[C@@H](Cc2c[nH]c3ccccc23)C(=O)N2CCC[C@H]2C(=O)N1 |  | inactive: -30.1% [at 12.7 µM] |
| S=C(Nc1ccc(CN2CCCCC2)cc1)Nc1cccc(Cl)c1Cl | active: 39.8 µM |  |
| NC[C@@H]1O[C@H](C23CC4CC(CC(C4)C2)C3)Cc2c1ccc(O)c2O | active: 15.8 µM |  |
| Cc1ccc(SCc2[nH]nc3c2C(c2ccc(C)o2)C(C#N)=C(N)O3)cc1 (stereo unspecified) |  | inconclusive: -74.7% [inhibitor] |
| CCCC(=O)NC(c1ccccc1OC)c1ccc2cccnc2c1O (stereo unspecified) | inactive |  |
| C=CCn1cnnc1SCC(=O)Nc1cccnc1Cl | inconclusive: 56.2 µM [inhibitor, partial curve, poor fit] |  |
| CC(C)Cn1c(-c2ccco2)n[nH]c1=S | active: 7.08 µM |  |
| Cc1nn(C)c(Cl)c1S(=O)(=O)N[C@@H](c1ccccc1)[C@]1(C)C[C@H]1[C@@H](C)C(=O)Nc1ccc2ccccc2c1 | active: 50.1 µM |  |
| CCN(CC)c1ccc(NC(=O)COc2ccccc2C#N)cc1S(=O)(=O)Nc1ccccc1OC | active: 2.51 µM |  |
| CC1CCCC(C)N1C(=S)NCc1ccco1 (stereo unspecified) |  | inconclusive: -95.7% [inhibitor] |
| CCOc1cc(C=C(C#N)C#N)ccc1Oc1ccc([N+](=O)[O-])cn1 | inconclusive: 79.4 µM [inhibitor, single point] |  |
| CC(=O)Nc1ccc(OCC(O)Cn2ccnc2C)cc1 (stereo unspecified) | inactive |  |
| CCCCN(CC)CCNc1c(N2CCN(C(=O)OCC)CC2)c(=O)c1=O | inconclusive: 89.1 µM [inhibitor, partial curve, poor fit] |  |
| O=C(Nc1nccs1)c1nc(-c2ccccc2)n(-c2ccccc2)n1 | inconclusive: 10 µM [inhibitor, partial curve, poor fit] |  |
| COc1ccc(OC)c(NC(=S)N(CCc2c(C)[nH]c3ccc(C)cc23)Cc2cccs2)c1 | active: 44.7 µM |  |
| Cc1ccc(C(=O)NC(=S)NCC2CCCO2)cc1 (stereo unspecified) | inactive |  |
| Cc1ccc(NC(=O)C(=O)NCCOc2ccccc2Cl)cc1 | inconclusive: 0.708 µM [inhibitor, full curve, poor fit] |  |

| SMILES | Potency | activity, negative = inhibition |
| --- | --- | --- |
| Cc1cccc(/C(N)=N/OC(=O)c2cccc3ccccc23)c1 | inactive |  |
| CC(C)(C)NC(=O)C(c1ccncc1)N(C(=O)Cn1nnc(-c2ccc(F)cc2)n1)c1ccccc1F (stereo unspecified) | inconclusive: 50.1 µM [inhibitor, partial curve, poor fit] |  |
| CCN1CCN(CC(=O)c2cc(OC)c(OC)c(OC)c2)CC1 | active: 39.8 µM |  |
| O=C(C1=C(O)C(=O)N(CC2CCCO2)C1c1ccccc1)c1ccco1 (stereo unspecified) | active: 44.7 µM |  |
| O=C(NCCc1ccccn1)C(F)(F)C(F)(F)C(F)(F)C(F)(F)C(F)(F)C(F)F | inconclusive: 14.1 µM [inhibitor, partial curve, poor fit] |  |
| CCOc1cc(/C=C2/C(=O)ON=C2C)ccc1OCc1ccccc1F |  | inconclusive: -74.9% [inhibitor] |
| CCOc1cccc2sc(Nc3nc4ccc(NC(C)=O)cc4s3)nc12 | inconclusive: 11.2 µM [inhibitor, partial curve, poor fit] |  |
| COCCCNC(=O)c1cc2n(n1)CCCN(Cc1ccc(C)cc1)C2=O |  | inactive: 2.42% [at 12.7 µM] |
| FC(F)(F)c1ccccc1NC(=S)N/N=C1\CC2CC=CC12 (stereo unspecified) | active: 17.8 µM |  |
| CC1Cc2ccccc2N1S(=O)(=O)c1cccc(C(=O)NCc2ccncc2)c1 (stereo unspecified) | inconclusive: 14.1 µM [inhibitor, single point] |  |
| CC1=C(C(=O)OCc2ccc(C)cc2)C(c2c(Cl)cccc2Cl)CC(=O)N1 (stereo unspecified) | inactive |  |
| O=[N+]([O-])/C(C(Cl)=C(Cl)Cl)=C(/NC1CC1)Sc1ccccc1 | active: 39.8 µM |  |
| Cc1ccc(-n2ncc(C(=O)NC3CCCC3)c2C2CCN(C(=O)OC(C)(C)C)CC2)c(C)c1 | inactive |  |
| CC(=O)Nc1cccc(-c2csc(Nc3cccc(C)n3)n2)c1 |  | inactive: -3.54% [at 0.0925 µM] |
| COC(=O)Cn1cc(C#N)c2ccccc21 | active: 10 µM |  |
| Cc1csc(/N=C/c2ccc([N+](=O)[O-])cc2)n1 | inconclusive: 39.8 µM [inhibitor, single point] |  |
| O=C(CCSc1ccc(Br)cc1)Nc1cccnc1 | inconclusive: 63.1 µM [inhibitor, single point] |  |
| O=C1SC(SCc2ccccc2)=N/C1=C\c1ccco1 | active: 12.6 µM |  |
| CC(C)(C)/C(O)=C/c1nc2cc(Cl)ccc2oc1=O | active: 44.7 µM |  |
| C/C(=N\NC(=O)c1ccc(F)cc1)c1ccccn1 | inconclusive: 63.1 µM [inhibitor, single point] |  |
| COc1ccc(-c2nn(-c3ccccc3)cc2C(=O)NCC(c2cccs2)N2CCOCC2)cc1 (stereo unspecified) | inconclusive: 56.2 µM [inhibitor, partial curve, poor fit] |  |
| O=C(O)c1cccc(-c2ccc(/C=c3/sc4nc5ccccc5n4c3=O)o2)c1 | active: 7.94 µM |  |
| COc1ccc(NC(=O)Nc2cccs2)cc1Cl | inconclusive: 39.8 µM [inhibitor, partial curve, poor fit] |  |
